Results taken from the supplement of paper PMC12632987.
Whole data set: some 4,500 sequences, median “median log2 fold change of GCK-ALFA target abundance (FLAG IP / Myc IP barcode read proportion)” near 0.078, cut for the lowest 2% near -0.6. Some of the results follow.

B1: GBRAP_128_3319 (protein)
chain: MDEALLKEAEKLAKAMQQADLETLAVLTRRLVALLGQADAEQREKIAEIFRKALEQLDAEKLDVVADTLRAERPELDPEAARVAAGLEVEALNLAEEKEE
B2: GBRAP_9_7170 (protein)
chain: EEEKKKKIKEVVLEAFEEILKVVPEDKKPLVEKLKKEAKEELEKALADPNTTLEEFKKLAKEQLEKLVKEIKEAVDPETAAAVEAIALTAEVEIDEILEE
B3: GBRAP_160_4414 (protein)
chain: SELIEEVRRLFEELRELVLELLEEGERAEALAAVRVGAGEILLYVDEDPRVSEEAEEKIAEVLDELVAEVEANPDASPEEVAKLIEEAEEKVIEILKENL
B4: GBRAP_128_3223 (protein)
chain: STEELKEKVRELLEKIKESNKEEAKKLAKELAELIKNSTVEEAEAMLEVIEELAPELSEEDLEILIDELEAAAKEVDDEVALELLDAAVVLSEELLEKEE
B5: GBRAP_160_4026 (protein)
chain: SKSVEEIVKDFREELELILEHAKEMSEEELAGAIRTAIGQAILDVSESPDLKDLTREEVDELDELAEEVAKEISEGDEETRKKKAEELAEAVRKAIEKAA
B6: GBRAP_160_4807 (protein)
chain: MEKVEKKLEEFRKDLLEEAEATKDLPVEDRARILEAVGYTEILYLKEELNLSDETEEKLDAVVDELVATLLANPDLTPEEVLALVEEANKKVEEIVKAEV
B7: GBRAP_52_6065 (protein)
chain: MEERIEEMAEAIAEAVAAGDRERALALIARMIEELSLEEIRRTLELAARRVAGLGEEAHELFVEVLEEGEDLLIEAGISEEDALDIVGAAEAALAKAVAA
B8: GBRAP_11_2679 (protein)
chain: KKEQLKKIAEIAKELAEAIEKLLKEGVDNEKLLKEIKKLLKELKELAEKYADEGLKTLAEIAAELFEEALANPENAEHYLELLLAAVRVLLANVEEEIDE
B9: GBRAP_160_4304 (protein)
chain: KEEYEKLMKEIKEIAEEAIKMIEGQSKEEQKTIVKVALGEIILEVDESPAISDELEEEIDKIAEEAEKYLDENPDLSEEEIKELLKEAVEKILELIKKHS
B10: GBRAP_39_5716 (protein)
chain: EEEEELELLASYAEALFAKYQYEKGISEEEAVAEGLAYMRRLAEEHPEYREEIEELIAEARRLGPEAERVLAAAAAMVRAGMPLEEAIAVAKYEFEKLKK
B11: GBRAP_83_6938 (protein)
chain: AEKVVVAAPGDRVEEAVEIALDLKENEGYEVSLEIIFTKEQAEKVIEEVKKLIEKGYEGEITLINTDNDKELAEKVKEEIKEAAKKYGKNVKVNAYVIEP
B12: GBRAP_83_6956 (protein)
chain: MITVVGTSKPESIESAFDAAIDLHLEEGIEVEIEVYVTKESAEVALEAAERAIKAGVEFELTLIGKESEREVLEELAKRIKEAAKAAGVDVKVEVVVEED
B13: GBRAP_11_2612 (protein)
chain: SKEIKKEMAKLAEEAAKVIEELLEKGVDDEELQKKAEKLLKELAELVKKYGDKADQTLVEVAKELLKEAKEDPENKEFYWEQLLAAMRVLSGNFLLDIEE
B14: GBRAP_52_5895 (protein)
chain: KAEEVLKLLKKAVDAVAEGKEEEARKYILEAVKVAVELSEEEVRKVAKEAAKYAAEKSKEVFEKFLELVLEVLDEEEDLTEDEEAVLETLAAEFAKVYLA
B15: GBRAP_14_3787 (protein)
chain: MEKALALLDEAAAEIKAEAARIAPEKAAELGALIDELFAATRAEIKATGDAVAAVEALRDRLLAGAAEILADADEETRAALLAAIDDILTETELRLEELE
B16: GBRAP_160_4400 (protein)
chain: KEKFEKTKKEITEIFDELEELIKGQSKEERRVIIRVSFGQVIMEIFENDAFTDEQEEEFSKIVDEYLERALAAVDEGLEAVLKVIREARDELLAFIESLE
B17: GBRAP_160_4654 (protein)
chain: SAEVEALIARIRAILDEAVAMMVGETHEQRVAIARDMRGEILLELEESPEVSEEAEDAVDAIMDALVATIAANPDLTDEELAALFAEAAAAIEATLKALA
B18: GBRAP_160_4702 (protein)
chain: SETAEELKKYVEEVFEEAKELIKGETREQRAIIIEGAIGEILMELAENEKATDELEDEVDKIGDELVETILKNENITDEELEELIDEAVKKMKEAIDKHL
B19: GBRAP_14_3840 (protein)
chain: REEVRRLLLEAVERAVEEVRKFAPEEARERVEALREVLRRAVDEGLETGDLEEAERRLVEVAEAAVRELFADLPPEERGALVAVAVDELVEGFEELEERL

What follows are binders tested against GABARAP, O95166 (assay: median log2 fold change of GCK-ALFA target abundance (FLAG IP / Myc IP barcode read proportion) (log2 ratio); each designed protein is fused to an ALFA-tag nanobody in HEK293 cells to bring the named protein to FLAG-tagged glucokinase (GCK); Myc marks an untargeted standard; higher = target protein stabilised (more abundant)). Conditions: target protein: 3xFLAG-MCP-GCK-ALFA reporter; HEK293 landing pad (RPLP).
Method in brief: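 An ALFA-nanobody-fused binder library was recombined into HEK293 landing-pad cells and induced with 2 μg mL^−1 doxycycline. Cells were transfected with a plasmid expressing a FLAG-tagged target and a Myc-tagged standard. After 48 h, lysates underwent anti-FLAG and anti-Myc immunoprecipitation, and circular RNA barcodes were reverse transcribed, amplified and sequenced. Target abundance is the per-binder median log2 ratio of FLAG to Myc barcode read proportions. Barcodes needed ≥10^−7 proportion in both replicates, binders ≥3 barcodes per replicate, and a 10^−6 pseudocount was added; the two replicates were pooled.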

GABARAP, O95166, sequence (O95166 whole entry, the tested form may be a part): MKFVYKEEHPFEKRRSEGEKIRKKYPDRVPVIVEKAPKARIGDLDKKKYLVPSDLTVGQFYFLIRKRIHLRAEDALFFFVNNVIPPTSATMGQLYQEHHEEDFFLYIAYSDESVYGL

Which “median log2 fold change” value does the source give for B1 here?
The value was 0.112.

With B2 as the binder, how does the “median log2 fold change” value read?
Its value is 0.346.

For B3, which “median log2 fold change” value is on record?
Its value is -0.165.

B4 was tested. Which “median log2 fold change” value did it give?
Its value is 0.0373.

B5 was tested. Which “median log2 fold change” value did it give?
The value was 0.184.

For B6, which “median log2 fold change” value is on record?
The value was 0.382.

Which “median log2 fold change” value does the source give for B7 here?
The value was -0.53.

How did the “median log2 fold change” value turn out when B8 was run?
Its value is -0.169.

For B9, which “median log2 fold change” value is on record?
The value was 0.00504.

For B10, which “median log2 fold change” value is on record?
The value was 0.0902.

Which “median log2 fold change” value does the source give for B11 here?
The value was -0.114.

How did the “median log2 fold change” value turn out when B12 was run?
The value was 0.0672.

For B13, which “median log2 fold change” value is on record?
The value was 0.16.

For B14, which “median log2 fold change” value is on record?
The value was 0.0362.

For B15, which “median log2 fold change” value is on record?
The value was 0.248.

How did the “median log2 fold change” value turn out when B16 was run?
Its value is -0.211.

Which “median log2 fold change” value does the source give for B17 here?
Its value is -0.104.

With B18 as the binder, how does the “median log2 fold change” value read?
Its value is -0.134.

For B19, which “median log2 fold change” value is on record?
The value was 0.0661.
